Source: the supplement of paper PMC10126150
Sequences with one replicate were seen in a single cluster, so their values are uncertain.

Test system: ATP
Assay: switch fluorescence ratio, 500 uM ATP over buffer (Cy3 cluster intensity, sum of 5 cycles each) (fold (ratio)); higher = stronger signal-on switching upon ATP binding; sequences stand for … in TCGTCGGCAGCGTCAGATGTGTATAAGAGACAGTTTTTTTTTTTTTTTTTTTTTTTTT…TC
Settings: aptamer strand: ATP DNA aptamer (quencher-CACCTGGGGGAGTATTGCGGAGGAAGG + anchor), 100 nM annealed; ATP concentration: 500 uM; one replicate
Method in brief: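 Clusters with intensities outside 100-1000 RFU were excluded. The remaining Cy3-labelled switching-strand clusters on a modified Illumina MiSeq flow-cell had been annealed to 100 nM quencher-labelled ATP aptamer and imaged in selection buffer, then after 15 min with 500 uM ATP at 22 °C, for five cycles separated by NaOH stripping and re-annealing. The fluorescence ratio, averaged per switch-domain sequence, is each cluster's summed target-cycle Cy3 intensity over its summed buffer-cycle Cy3 intensity.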
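Also: ATP exposure 15 min at 22 °C before imaging.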

| Sequence | switch fluorescence ratio |
| --- | --- |
| GGCTGTCGCT | 1 |
| TCCCCTCCAG | 1.36 |
| CACAGGTCTA | 1.04 |
| GACAGGCACT | 1.07 |
| CTGGTATTGC | 1.09 |
| TAAGACAGAC | 1.05 |
| GTGTGAATAA | 0.991 |
| TAATAGCAC | 1.02 |
| GGAATTTATG | 1.01 |
| AGATTGGATT | 1.02 |
| TAAGTTATTC | 0.955 |
| TTTTGACGT | 1.03 |
| TTTATTGTCG | 1 |
| GGCCATAGTT | 0.993 |
| ATACTTCACT | 1.47 |
| CACGAGTGAG | 1.01 |
| TTCGGTCT | 0.982 |
| GCGGTGGG | 1.03 |
| GTAACTATAC | 1.41 |
| TTGTCGGGGT | 0.968 |
| CCTAGGTCGG | 1.07 |
| TCGTGGGACG | 1.01 |
| CTTACATAGG | 1.03 |

| Sequence | switch fluorescence ratio |
| --- | --- |
| ATGATAAAGT | 0.968 |
| AAAGTGATA | 1.05 |
| ACTAAATTTA | 0.991 |
| CCCCTGAAAA | 1.08 |
| GAACTAAAAG | 0.979 |
| GGCGATAGAC | 1.01 |
| GGGATTGATG | 1.04 |
| TCTTCGAGTT | 1.01 |
| TATTGCCCAC | 0.981 |
| TAACCCAGAC | 1.37 |
| GTGGAGCCCG | 0.984 |
| GACTCGTGTC | 0.989 |
| CGATGAAGGG | 0.962 |
| CGATCGACTG | 0.989 |
| ATTGACTTGG | 1.05 |
| AATGCTCATC | 0.988 |
| GATGTGACGA | 1.01 |
| AGAAAGTAAA | 0.994 |
| TCACCCGAAC | 1.22 |
| TACTAACAC | 1.26 |
| GCAGATCAAT | 1.05 |
| AGCGAGCAAT | 2.32 |
| CAAGCGAAAA | 1.06 |

| Sequence | switch fluorescence ratio |
| --- | --- |
| ATAAACTGGG | 1.09 |
| AAGAGAAAAA | 1.02 |
| ATAGGACGAT | 1 |
| GACAGAATCT | 1.04 |
| GCGCTAGCAT | 1.03 |
| CTGGATTGGT | 0.971 |
| TCTGGATAA | 1.04 |
| CTACCCTCTC | 1.05 |
| GAACTTGAGA | 1.05 |
| TATCGTGGAA | 1.03 |
| ACAGAACTAA | 1.07 |
| ACATGTGGGA | 0.992 |
| GACATATTGC | 1.1 |
| TTAACCAATA | 1 |
| TGGTAAATGC | 1.06 |
| AAGGCACGT | 1.05 |
| AGGTTAATTC | 0.995 |
| AGACTCTTTA | 0.98 |
| AATGCTCCGT | 1.13 |
| TTGGATTAGA | 1.02 |
| TTGGCTCTGC | 0.967 |
| GGACCCTATG | 0.957 |
| AAAACAATGA | 0.982 |

| Sequence | switch fluorescence ratio |
| --- | --- |
| AATTCGAGGC | 0.95 |
| AGTCACCGTG | 1.04 |
| AGGAATGGG | 1.02 |
| CGAGTCTTCG | 1 |
| ATATGGGCCT | 1 |
| ATACTTTTCC | 1.14 |
| CACGTATCTT | 1.19 |
| CGCCCGCGTC | 1.54 |
| TCACCTATT | 1.08 |
| TTTTCGCCCA | 1 |
| ATAGTTGCTT | 0.974 |
| CGATTGTAGA | 1.02 |
| AGGATGCACA | 0.97 |
| AAAATGGAGC | 0.955 |
| GTTTCGAGAC | 1.03 |
| AAGTATCACC | 1.01 |
| GCGTGAGAA | 1 |
| TTCGGTAGGT | 0.987 |
| AGAAAGCCCT | 1.03 |
| CCGTTGGCTC | 1.44 |
| TCGGCCGGGC | 0.986 |
| CTTAGGAGTG | 1.03 |
| GGTCCTGGTG | 1.49 |

| Sequence | switch fluorescence ratio |
| --- | --- |
| GAGCACCGCC | 1.07 |
| TGCAACTGGG | 1.07 |
| ATGTTGTGCA | 1.05 |
| ACGTAATTCT | 1.24 |
| GGTTGACGTT | 0.933 |
| TTTATTTTGA | 0.99 |
| AGCACGCTTG | 1 |
| TATCATCCGC | 2.33 |
| TTGATTAGAA | 0.952 |
| TAGGATATCG | 0.998 |
| CGTAATTGCT | 1.08 |
| CGAAATGGTT | 1.03 |
| TTTCACGTCT | 0.952 |
| GGCTCGTGCG | 1 |
| GAACCCCGGG | 1.26 |
| AGGACCCCAT | 1.06 |
| AGTCAAATAT | 1.04 |
| AGTAGTTACG | 1.1 |
| ACTACCCGGA | 1.04 |
| ATCAGGGAGG | 1.01 |
| CAAGGTCGGT | 0.967 |
| TCTGGTGGGA | 1.01 |
| GGACACAAAG | 1.03 |

| Sequence | switch fluorescence ratio |
| --- | --- |
| CAAATTGCGG | 1.03 |
| TATTTTTCGA | 1.01 |
| AAATGTATGA | 0.98 |
| CCATGGGAAT | 0.935 |
| AATATTAGC | 0.972 |
| AGACCAGAAC | 1.02 |
| GAACTCTGCT | 1.15 |
| TCGTAGGGCA | 1.05 |
| CGCCTTTAGG | 1.04 |
| ACGCCCAAAG | 1.17 |
| TATCGCTACT | 1.69 |
| TGCATAATGC | 1.02 |
| TCGCACACTT | 1.32 |
| TTGATGACAA | 0.999 |
| CGGGAATG | 1.06 |
| GCCAGCGAGA | 1.07 |
| CATCAGGAAG | 1.05 |
| AGATAAGAGA | 0.985 |
| TCGTCGGAGC | 1.02 |
| CGCATCGGGG | 1.09 |
| GTTAATCACA | 1.02 |
| GCACATGCGC | 1.06 |
| ACAGATAAAA | 0.992 |

| Sequence | switch fluorescence ratio |
| --- | --- |
| ATGAACCGAA | 1.02 |
| ATCAGAACGG | 1.02 |
| GATATCAGAG | 0.99 |
| CCGGCAAGAA | 4.86 |
| TCTAGAGGAT | 0.986 |
| AGAAGGAGAG | 1.02 |
| ATTAACGCAG | 0.979 |
| GAGGGCCTAG | 0.971 |
| GAGACTTGAG | 0.999 |
| GTCTCATAGC | 0.978 |
| AACAGAGCAA | 2.39 |
| AAGCCAGCGC | 0.927 |
| CGCTGCATGA | 1.24 |
| CTGGTTGACG | 0.995 |
| TCGCGACCTA | 0.999 |
| AGAGCCAATA | 1.16 |
| GAAGGACTGG | 1.11 |
| GATATCCGA | 0.981 |
| ACCTATGTTT | 0.999 |
